Test results taken from patent US20240025919A1, “AZA-TETRACYCLIC OXAZEPINE COMPOUNDS AND USES THEREOF” (Genentech, Inc., priority 2022, published 2024).
Certain results were filed several times, with different values. They are shown here; other results are not. An entry can have further records. The values listed for one entry appear to be repeats on other runs, samples or individuals.

Target: KRAS G12D (Homo sapiens (Human), UniProt P01116, G12D)
Test: KRAS G12D LoEnz Biochemical Assay, BODIPY-GDP Exchange TR-FRET (SOS1-mediated nucleotide exchange)
Conditions: read-out: KRas (G12D) GDP HTRF IC50
Procedure: Example 500: KRAS G12D LoEnz Biochemical Assay, BODIPY-GDP Exchange TR-FRET. Biochemical compound potencies are assessed by evaluating inhibition of SOS1I-mediated nucleotide exchange in KRAS G121D. In this assay, the SOS1-promoted exchange of fluorescently-labeled GDP (BOPIDY-GDP) is monitored by time-resolved fluorescence resonance energy transfer (TR-FRET). Compounds solubilized in DMS0 are dispensed as concentration series into 384-well white assay plates. A preformed complex of biotin-tagged recombinant human KRAS (0.06 nM mutant G1 2D) and 0.06 nM terbium-labeled streptavidin (CisBIO) prepared in 10 uL/well assay buffer (20 mM HEPES, pH 7.5, 50 mM NaCl, 10 mMMMgCl2, 0.0100 Tween-20 and 1 mM dithiothreitol) is added and allowed to incubate for 10-minutes at room temperature. The reaction is initiated with the addition of 5 uL 300 nM recombinant human SOS1 and 300 nM BODIPY-GDP in assay buffer. After a 120-minute incubation, the fluorescence is measured with excitation at 337 nm and emission at 490 and 520 nm. The TR-FRET ratio is determined as the fluorescence at 520 nm divided by the fluorescence at 490 nm multiplied by 10,000. The results are normalized to percent inhibition based on control samples: DMSO (0% inhibition) and control compound at a concentration that inhibits completely (100% inhibition). […]

Chain of KRAS G12D (P01116-2 other isoform, or with tags, fused parts or gaps G12D): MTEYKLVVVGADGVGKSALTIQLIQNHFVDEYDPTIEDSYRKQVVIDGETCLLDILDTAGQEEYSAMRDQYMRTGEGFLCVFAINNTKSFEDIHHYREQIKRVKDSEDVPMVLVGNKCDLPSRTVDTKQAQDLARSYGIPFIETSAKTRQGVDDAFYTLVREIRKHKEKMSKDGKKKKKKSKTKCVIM

C[C@@H]1Oc2nc(-c3c(Cl)c(N)c(F)c(F)c3C(F)(F)F)c(F)c3nc(OC[C@@]45CCCN4C[C@H](F)C5)nc(c23)N2C[C@H]3CC[C@H](N3)[C@@H]12 (atropisomer, axis not shown; (aS)) [Compound 106, 2-Chloro-5,6-difluoro-3-((5S,5aS,6S,9R)-1-fluoro-12-(((2R,7aS)-2-fluorotetrahydro-1H-pyrrolizin-7a(5H)-yl)methoxy)-5-methyl-5a,6,7,8,9,10-hexahydro-5H-4-oxa-3,10a,11,13,14-pentaaza-6,9-methanonaphtho[1,8-ab]heptalen-2-yl)-4-(trifluoromethyl)aniline]
IC50: 1.89 nM and 0.18 nM [lines of one column]
